Out of some 50,000 compounds screened, about 800 (1.6%) showed an effect of 50% or more. This is one part of the list.
target: Bcl-2-like protein 10 (Homo sapiens) (UniProt Q9HD36); assay: Phenotype converters, Bcl-B/TR3 peptide binding displacement, primary biochemical FP (AID 1240); details: GST-Bcl-B / FITC-TR3 peptide fluorescence polarization; stronger effect = higher value; compound at 3.75 mg/L;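 note: 0% = Bcl-B with tracer peptide and DMSO and 100% = tracer peptide lacking Bcl-B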
Chain of UniProt Q9HD36 (Q9HD36 whole entry, looked up): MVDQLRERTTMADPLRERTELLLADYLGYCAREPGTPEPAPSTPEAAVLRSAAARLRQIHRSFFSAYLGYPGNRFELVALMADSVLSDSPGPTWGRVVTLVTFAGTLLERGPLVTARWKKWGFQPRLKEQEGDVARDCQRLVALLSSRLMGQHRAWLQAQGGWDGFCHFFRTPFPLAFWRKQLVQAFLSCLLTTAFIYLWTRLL

Structure (SMILES)	displacement
CCC(C)c1ccc(OCCOc2ccc(/C=C3/SC(=S)N(C)C3=O)cc2OC)cc1 (configuration not stated)	-22.2%
COc1ccccc1OCC(=O)Nc1ccc(-c2nc3ccccc3[nH]2)cc1	2.1%
Cc1c(C(=O)Nc2ccc3oc(-c4ccncc4)nc3c2)oc2ccccc12	35.1%
CCN(c1ccccc1)S(=O)(=O)c1c(C)cc(C)cc1C	-8.7%
O=C1/C(=C\c2cccc([N+](=O)[O-])c2)SC(=S)N1c1cccc(C(F)(F)F)c1	13.3%
CNC(=O)C(=O)Nc1cccc2ccccc12	12.4%
COc1ccc(C(=O)NC(C)C2COc3ccccc3O2)c(OC)c1 (configuration not stated)	0.5%
COc1ccccc1NC1=C(Cl)C(=O)N(c2ccc(C)cc2C)C1=O	8.3%
O=[N+]([O-])c1ccc(F)c(NS(=O)(=O)c2cc(Cl)ccc2Cl)c1	-1.9%
CCCS(=O)(=O)c1c(S(=O)(=O)CCC)c2ccc(C(C)=O)cn2c1C(=O)OC	-4.7%
O=[N+]([O-])c1ccc(NC(=S)Nc2ccccc2)c(O)c1	16.4%
COc1ccc(OCC(=O)n2nc(C)cc2C)cc1	-0.6%
COc1ccccc1OCCCCCn1ccnc1	3.2%
CN(C)c1ccc(/C=C2\N=C(c3cc4ccccc4oc3=O)OC2=O)cc1	0%
S=C(NCc1cccnc1)Nc1ccc(Cl)cc1Cl	-5.6%
Cc1c(C)c2ccc(OCC(=O)C(C)(C)C)c(C)c2oc1=O	5.4%
CSc1ccccc1NC(=O)Cn1nc(C(F)(F)F)cc1C	-0.7%
O=C(CCCN1C(=O)/C(=C\c2cccs2)SC1=S)Nc1nc2ccccc2s1	12.7%
O=C1C(=O)N(Cc2cccnc2)C(c2cccc(F)c2)/C1=C(\O)c1ccccc1 (configuration not stated)	-10.3%
CCCC1=NN2C(=N)/C(=C/c3ccc(-c4ccc(Cl)cc4Cl)o3)C(=O)N=C2S1	74.7%
CC(C)CN1C(=O)/C(=C/c2ccc(C(C)(C)C)cc2)SC1=S	8.1%
COc1cccc(C(=O)Nc2cccc3c2C(=O)N(c2ccccc2)C3=O)c1	0.6%

Structure (SMILES)	displacement
Cc1ccc(S(=O)(=O)n2c(C)nc3ccccc32)cc1	6.6%
CCCCNCCOc1cccc(Cl)c1Cl	-2.8%
Cc1[nH]c2ccccc2c1C(=O)/C=C/c1c2ccccc2cc2ccccc12	4.6%
COc1ccccc1NC(=O)C(=O)NNC(=O)COc1ccc(Cl)cc1	-3.5%
O=C(N/N=C/c1c(O)ccc2ccccc12)c1cc(C23CC4CC(CC(C4)C2)C3)[nH]n1	-5.2%
Cc1ccn2c(-c3csc(Nc4cccc(O)c4)n3)c(C)nc2c1	-21.7%
COc1ccc(C(=O)ON=C2c3ccccc3-c3ccccc32)cc1OC	9.9%
Cc1ccc(/C(O)=C/c2nc3ccccc3[nH]c2=O)o1	130%
Cc1cccc(OCCOCCN2CCC(C)CC2)c1	-6.3%
O=C(Nc1ccc(Cl)cc1)c1cccc(S(=O)(=O)NCc2ccccc2)c1	-11.1%
Brc1cccc(C=NN2CCN(Cc3ccccc3)CC2)c1	-6.7%
COc1ccc(N(CC(=O)Nc2ccc(C)cc2C)S(=O)(=O)c2ccc(C)cc2)c(OC)c1	9.8%
O=C(NCCCN1CCOCC1)NC1CCCCC1	5.7%
CC1=C(C(=O)Nc2ccc(Cl)cc2)C(c2ccccc2Br)NC(=O)N1 (configuration not stated)	1.4%
Cc1ccc(NC(=O)/C=C/c2ccc(C)o2)cc1	3.6%
CCOC(=O)c1c(NC(=O)c2ccc(S(=O)(=O)N3CCCCCC3)cc2)sc2c1CCC2	-12.9%
Cc1cc(C)cc(N2C(=O)NC(=O)/C(=C\c3ccsc3)C2=O)c1	-7.8%
O=c1c(=Nc2nn[nH]n2)c(=O)c2ccccc12	-7.2%
Cc1ccc(C2C3=C(CC(C)(C)CC3=O)N=C3c4ccccc4C(=O)C32)cc1 (configuration not stated)	6.9%
CCCCCCCCNC(=O)CCC(=O)O	14.1%
CCOC(=O)C1=C(C)NC(=O)NC1c1ccccc1Cl (configuration not stated)	3.8%
Cc1ccc(COc2ccc3oc(C)c(C(=O)O)c3c2)cc1	7.3%

Structure (SMILES)	displacement
COc1ccc(NC(=O)COc2ccc(C)cc2Br)cc1Cl	-7.9%
COc1cc(C=C2C(=O)NC(=O)NC2=O)ccc1OC(=O)c1cc(F)c(F)cc1Cl	3.9%
O=C1/C(=C/c2ccc(Cl)cc2Cl)SC(=S)N1C1CCS(=O)(=O)C1 (configuration not stated)	7.1%
COC(=O)c1ccc(NC(=O)C2CC2(c2ccccc2)c2ccccc2)cc1 (configuration not stated)	-7.7%
COc1ccc(N2C(=O)NC(=O)/C(=C\C=C\c3ccccc3[N+](=O)[O-])C2=O)cc1	-2.4%
O=C1C(Cl)=C/C(=N\S(=O)(=O)c2ccc(Cl)cc2)C(Cl)=C1Cl	16.2%
Cc1cc(C)cc(NC(=O)C(Cc2c[nH]c3ccccc23)NC(=O)Oc2ccccc2)c1 (configuration not stated)	-10.2%
O=C1SCCC1NS(=O)(=O)c1cc(Cl)ccc1Cl (configuration not stated)	-12.7%
CCC(=NCc1ccccc1)c1c(C(F)(F)F)[nH]n(-c2nc3ccccc3s2)c1=O	-13.5%
CC1=C(C(=O)OC2CCCC2)C(c2cc3c(cc2[N+](=O)[O-])OCO3)NC(=O)N1C (configuration not stated)	17.2%
CC(=O)c1ccc(NC(=S)NC(NC(=O)c2ccccc2Br)C(Cl)(Cl)Cl)cc1 (configuration not stated)	10.2%
Cc1ccc(NS(=O)(=O)c2cccc3c2C(=O)c2ccccc2C3=O)cc1C	13%
COc1ccc([N+](=O)[O-])cc1-c1ccc(C=C2C(=O)c3ccccc3C2=O)o1	-7.5%
CCOC(=O)c1ccccc1NC(=O)/C=C/c1ccc(OC)c(Br)c1	7.3%
Cc1ccc(N2NC(=O)/C(=C\c3ccc(Br)cc3)C2=O)cc1	1.8%
O=C(O)C1C2CCC(O2)C1C(=O)NCc1ccc2c(c1)OCO2 (configuration not stated)	-5.5%
O=C(COc1ccc2ccccc2c1)Nc1cccc(NC(=O)c2ccc(Cl)cc2Cl)c1	0.4%
O=C(Nc1ccccn1)c1ccc(-c2ccccc2)cc1	-1.1%
CC(C)(C)c1ccc(/C=C2\NC(=S)NC2=O)cc1	-20.2%
O=C(CCc1ccccc1)N/N=C/c1ccc(F)cc1	12.2%
CC(=O)Nc1ccc(NC(=O)c2cc3cc([N+](=O)[O-])ccc3oc2=O)cc1	17.5%
Cc1c(Cl)cccc1NC(=O)C(=O)NCc1ccc(F)cc1	-1.8%

Structure (SMILES)	displacement
CCOC(=O)c1c(NC(=O)c2cccs2)sc(C(=O)Nc2ccc(OC)cc2OC)c1C	-5.8%
CSc1nc2sc3c(c2c(=O)n1Cc1ccccc1)CCN(C)C3	-6.8%
Cc1cc(NC(=O)c2nn3c(c2Cl)NC(c2ccc(Br)cc2)CC3C(F)(F)F)no1 (configuration not stated)	0.5%
COc1ccc(/C=C(\NC(=O)c2ccccc2)C(=O)NCCCn2ccnc2)cc1	-15%
CS(=O)(=O)c1ccc2nc(NC(=O)c3ccc([N+](=O)[O-])cc3)sc2c1	8%
CCOc1ccc(C(O)Cc2nc3ccccc3n2C)cc1 (configuration not stated)	-7.9%
CN1C(=O)C(=Cc2ccc(-c3ccccc3C(=O)O)o2)C(=O)N(C)C1=O	11.4%
CCOc1cccc(C(=O)Nc2ccc(NC(=O)c3ccco3)c(OC)c2)c1	12.4%
CCc1nnc(NS(=O)(=O)c2ccc(NC(=O)c3ccccc3[N+](=O)[O-])cc2)s1	-2.8%
O=C(N/N=C/c1ccc([N+](=O)[O-])cc1)c1cc(C2CC2)[nH]n1	-5.9%
O=C(CSc1nc2ccccc2[nH]1)Nc1ccccc1F	-9.7%
CCN1C(=O)c2cccc3c(NC(=O)c4cccs4)ccc1c23	-29.9%
O=C(CSc1ncc(-c2ccccc2)[nH]1)Nc1ccccc1	17.3%
COc1cc(/C=C2\SC(=Nc3cccc(Cl)c3C)NC2=O)ccc1O	-18.2%
Cc1ccccc1S(=O)(=O)N=C1C=CC(=O)C(Cl)=C1	19.5%
N#Cc1ccccc1OCC(=O)N/N=C/C=C/c1ccc([N+](=O)[O-])cc1	11.6%
COc1ccc(-c2nnc(NC(=O)c3ccco3)s2)cc1OC	42.1%
Nc1nnc(SCC(=O)NC2CCCC2)s1	-9.1%
O=C1C(=O)N(CCc2ccccc2)c2ccc(Br)cc21	-3.4%
O=C(Nc1cccc2ccccc12)/C(=C\c1cccc([N+](=O)[O-])c1)NC(=O)c1cccs1	-5%
CC1=NOC(=O)/C1=C/c1ccc(OCc2ccc(F)cc2)cc1	9.5%
COc1ccc(-c2cc3ccccc3oc2=O)cc1OC	7.8%

Structure (SMILES)	displacement
COc1cc(/C=C2/SC(=S)N(C)C2=O)ccc1OCCSc1ccc(Cl)cc1	43.6%
CN1CCN(C(=O)c2cccc(F)c2)CC1	-10.4%
COc1ccc(OC)c(NC(=O)CN(c2ccccc2Cl)S(C)(=O)=O)c1	1.3%
Cc1cc(C)nc(NS(=O)(=O)c2ccc(NC(=S)NC(=O)/C=C/c3ccc([N+](=O)[O-])cc3)cc2)n1	3.9%
COc1ccc(N2C(=O)NC(=O)/C(=C\c3cc(Cl)c(OC)c(Cl)c3)C2=O)cc1	9.4%
COC(=O)c1c(-c2ccc(C(C)C)cc2)csc1N	5.7%
CC1=NN(c2ccc([N+](=O)[O-])cc2)C(=O)/C1=C\N(C)C	-23.6%
CC(C)c1ccc(-n2c(O)c(/C=C3\C=Nc4ccccc43)c(=O)[nH]c2=O)cc1	14.5%
CC(C)OC(=O)c1ccc(NC(=O)COc2ccc(Cl)cc2)cc1	-13.1%
CCOc1ccccc1NC(=O)C(=O)NCc1ccccc1Cl	-11.6%
Cc1ccccc1OCC(=O)Nc1cccc(C(F)(F)F)c1	-0.9%
CCOC(=O)c1c(-c2ccccc2)oc2cc(Br)c(OCC(=O)C(C)(C)C)cc12	5.4%
CC(C)(C)NCCCCOc1ccc2ccccc2c1	1.4%
COc1ccc(-c2ccc(/C=C3/SC(=S)NC3=O)o2)cc1Cl	8.2%
COc1ccc(Cl)cc1C(=O)Nc1nc(-c2ccc(Cl)cc2Cl)cs1	9.7%
O=C(c1ccc(Cl)c([N+](=O)[O-])c1)N1CCN(c2ccc([N+](=O)[O-])cc2)CC1	5.7%
COC(=O)C1=C(C)N=c2s/c(=C\c3ccc(Cl)cc3)c(=O)n2C1c1ccc(OC)c(OC)c1 (configuration not stated)	9.9%
CCOC(=O)C1=C(C)NC(C)=C(C(=O)OCC)C1c1ccc(N(C)C)cc1	5.1%
CCCOc1cccc(C(=O)Nc2scc(-c3ccc(C)cc3)c2C(=O)OC)c1	18%

From PubChem BioAssay AID1240 (Sanford-Burnham Center for Chemical Genomics, 2008)
